Screen size: about 310,000 compounds; about 2,200 (0.71%) showed an effect of 50% or more. The effect is printed as a negative number. Some of the results follow.
molecular target: human ether-à-go-go-related gene (hERG) potassium channel (human, UniProt Q12809); assay: primary screen, population patch clamp on CHO cells stably expressing hERG
Sequence (Q12809 whole entry, looked up): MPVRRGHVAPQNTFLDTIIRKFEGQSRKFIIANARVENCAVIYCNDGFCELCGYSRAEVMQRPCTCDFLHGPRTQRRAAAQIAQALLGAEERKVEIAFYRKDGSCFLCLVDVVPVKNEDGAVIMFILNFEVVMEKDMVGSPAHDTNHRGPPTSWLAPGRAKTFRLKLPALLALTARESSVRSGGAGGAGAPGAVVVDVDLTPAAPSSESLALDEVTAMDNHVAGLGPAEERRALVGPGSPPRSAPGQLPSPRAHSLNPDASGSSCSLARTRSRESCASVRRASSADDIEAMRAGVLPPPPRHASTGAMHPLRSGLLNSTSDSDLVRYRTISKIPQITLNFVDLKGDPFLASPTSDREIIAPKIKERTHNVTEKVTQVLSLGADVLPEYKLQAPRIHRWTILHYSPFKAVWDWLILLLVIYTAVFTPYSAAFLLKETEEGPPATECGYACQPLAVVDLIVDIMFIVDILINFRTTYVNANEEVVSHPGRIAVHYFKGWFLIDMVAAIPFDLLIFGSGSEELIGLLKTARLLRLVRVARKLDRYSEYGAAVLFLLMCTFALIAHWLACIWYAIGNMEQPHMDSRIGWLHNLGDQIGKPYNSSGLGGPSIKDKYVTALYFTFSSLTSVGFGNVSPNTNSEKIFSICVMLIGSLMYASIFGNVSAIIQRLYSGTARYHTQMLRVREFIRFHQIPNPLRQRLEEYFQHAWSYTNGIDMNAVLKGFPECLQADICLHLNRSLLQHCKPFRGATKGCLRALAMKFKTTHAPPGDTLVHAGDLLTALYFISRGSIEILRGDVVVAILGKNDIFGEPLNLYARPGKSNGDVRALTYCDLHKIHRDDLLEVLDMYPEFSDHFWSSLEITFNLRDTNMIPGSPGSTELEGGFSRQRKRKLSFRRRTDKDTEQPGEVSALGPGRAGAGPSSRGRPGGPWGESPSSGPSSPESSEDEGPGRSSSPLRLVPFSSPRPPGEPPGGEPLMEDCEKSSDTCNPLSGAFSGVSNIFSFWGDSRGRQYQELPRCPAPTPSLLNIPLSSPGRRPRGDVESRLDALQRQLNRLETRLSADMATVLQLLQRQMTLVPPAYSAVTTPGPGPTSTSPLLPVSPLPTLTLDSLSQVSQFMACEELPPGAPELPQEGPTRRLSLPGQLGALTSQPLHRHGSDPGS

SMILES	hERG current change (%, negative = inhibition) at 1uM
Cc1ccc(C)c(S(=O)(=O)N2CCN(C(=O)CSc3ccccc3F)CC2)c1	8.13%
COc1cc(C=C2C(=O)OC(c3ccccc3)OC2=O)cc(Br)c1O (stereo not shown)	9.32%
Cc1cccc(C)c1Nc1nnc(SCC(=O)c2ccc(Br)s2)s1	12.4%
COC(=O)CC1c2cc(OC)c(OC)cc2CC(=O)c2cc(OC)c(OC)cc21 (stereo not shown)	14.7%
COc1ccc(OC)c(-n2c(-c3cc(-c4ccc(F)cc4)n[nH]3)n[nH]c2=S)c1	12%
COC(=O)C1=C(c2ccc(F)cc2F)C[C@@H]2CC[C@H]1N2C(=O)N1CCC(C)CC1	1.55%
CC1CC(=S)Nc2ccccc2S1 (stereo not shown)	6.33%
Nc1nonc1-n1nnc(C(=O)O)c1-c1cccs1	17.3%
CCCC(C)NC(=O)COC(=O)c1cccc(NS(C)(=O)=O)c1 (stereo not shown)	9.6%
Cc1cc(C)nc(N/N=C/c2ccccc2OCc2cccc(Br)c2)n1	4.01%
Cc1ccc(-c2cc(N)n(Cc3ccc(Cl)cc3)n2)cc1	1.54%
Cn1cc(C(=O)Nc2cccc(F)c2)cn1	14.7%
COc1cc(C(=S)N2CCOCC2)cc(OC)c1OC(=O)Cc1ccccc1	7.76%
Nc1ncc(N=Nc2cc(C(=O)O)ccc2Cl)s1	7.03%
O=C(O)c1cc2ccccc2oc1=O	11.8%
COc1ccc(CC(=O)O/N=C(\N)c2ccccn2)cc1	12%
O=C(NCC1CC1)C1CCCN(S(=O)(=O)c2ccc(-n3cnnn3)cc2)C1 (stereo not shown)	-14.5%
CC(=O)Nc1cc(NC(C)=O)c(N=Nc2ccccc2)cc1C	12.2%
CC1Cc2ccccc2N1CC(=O)NC(=O)NC1CCCCC1 (stereo not shown)	3.07%
Cc1ccc(NC(=O)CSC2=C(C#N)C(c3ccc4c(c3)OCO4)CC(=O)N2)cc1C (stereo not shown)	9.05%
CCCCn1c(N)c(N(CC(C)C)C(=O)C2CC(=O)N(c3ccc4c(c3)OCCO4)C2)c(=O)[nH]c1=O (stereo not shown)	8.42%
CCCCCN(C(=O)CCC(=O)OCc1ccccc1Cl)c1c(N)n(CCCC)c(=O)[nH]c1=O	5.11%
O=C(COC(=O)c1c[nH]c2ccccc12)NC1CCCC1	10%

SMILES	hERG current change (%, negative = inhibition) at 1uM
COc1cc(/C=N/NC(=O)CCC(=O)NC2CCCCC2)ccc1C	4.97%
Cc1ccc(NC(=O)CN(C)C(=O)COC(=O)C2=COCCO2)cc1	13.3%
NCCCC[C@H]1CNC(=O)C(=O)N1CCCCC1CCCCC1	15.3%
CC(C)N1CCN(Cc2cccn2-c2nccs2)CC1CCO (stereo not shown)	11.5%
Cc1ccc(NC(=O)CSc2ccc(-c3ccco3)nn2)c(C)c1	-8.49%
O=C(Nc1cccc(Cl)c1)c1c(O)c2c(n(Cc3ccco3)c1=O)CCCC2	7.55%
CCc1ccccc1NC(=S)N(Cc1cccs1)C1CCCC1	12%
Cc1ccc(-n2nc3c(N4CCC(C(=O)N5CCC(C(N)=O)CC5)CC4)nnc(C)c3c2C)cc1	11.9%
O=C(Cc1ccccc1)NCC(=O)N1CCc2ccccc2C1	8.82%
O=C(COC(=O)/C=C/c1ccccc1Cl)NCc1ccccc1	-8.14%
O=C(NNC(=O)c1cccnc1SCc1cccc([N+](=O)[O-])c1)c1cccnc1	9.72%
CCOC(=O)N1CCN(C(=O)c2ccc3c(=O)n(CCC4=CCCCC4)c(=S)[nH]c3c2)CC1	14.1%
COc1ccccc1OCC(=O)Nc1ccc(Cl)cc1	9.34%
C=CCn1c(C)cc(C(=O)COC(=O)/C=C/c2ccc(OC)cc2)c1C	11.1%
CCc1cc[n+](CC(=O)Nc2ccc(Cl)cc2Cl)cc1.[Cl-]	8.96%
Cc1c(OCc2ccccc2)c(=O)ccn1Cc1ccccc1	-3.2%
CN(CC(=O)Nc1ccc(F)cc1[N+](=O)[O-])Cc1ccccc1	8.08%
CN(CC(=O)Nc1cccc(F)c1)C(=O)/C=C/c1ccc2ccccc2n1	10.3%
CCCNS(=O)(=O)c1ccc(OCC(=O)NCC2CCCO2)cc1 (stereo not shown)	20.1%
CN1CCC(=O)N([C@H](CO)c2ccccc2)CC1	3.71%
N#Cc1c(N2CCN(C(=O)c3ccccc3)CC2)nc(-c2ccccc2)c2c1CCCC2	-12.2%
C/C(Cl)=C/Cc1c(C)[nH]c2ccc(C)cc2c1=O	2.92%
CCOC(=O)C1CCN(CCC(=O)Nc2ccccc2)CC1	-0.3%

SMILES	hERG current change (%, negative = inhibition) at 1uM
O=S1(=O)N(CCN2CC=C(c3c[nH]c4cc(F)ccc34)CC2)c2cccc3c2N1CCC3	3.08%
O=C(CN(CC1CCCO1)C(=O)CCC(=O)Nc1ccccn1)NCC1CCCO1 (stereo not shown)	9.8%
Cc1sc2ncnc(NCc3cccs3)c2c1C	2.15%
COc1ccc(/C(O)=C/C(=O)C(=O)NNC(=O)c2ccccc2)cc1	16.6%
Cc1ccc(-c2cc(C(=O)n3cnc4ccccc43)c3ccccc3n2)cc1C	4.97%
CCCOc1ccc(NC(=O)CC2C(=O)N(CC)C(=S)N2Cc2cccs2)cc1 (stereo not shown)	9.87%
COc1ccc(NC(=O)COc2coc(CN3CCc4ccccc43)cc2=O)cc1	3.78%
COc1ccc(C2(c3ccc(OC)cc3)NC(=O)N(CC(=O)N(C)C3CCC(C)CC3)C2=O)cc1 (stereo not shown)	-5.84%
CC1(C)CC(=O)C=C(Nc2ccc(Cl)cc2)C1	9.64%
COc1cc(CC(=O)Nc2sc3c(c2C(N)=O)CCCC3)cc(OC)c1OC	12.7%
O=C(COC(=O)c1ccc(Br)o1)NCc1ccco1	-3.21%
COc1ccc(CCN2CC(C(=O)N3CCCCCC3)CCC2=O)cc1 (stereo not shown)	14.9%
COc1ccc(-c2oc3ccc(-c4cc(OC)c(OC)c(OC)c4)cc3c2C(=O)c2ccc(OC)nc2)cc1	9.84%
COc1ccccc1CN(C)C(=O)CNC(=O)c1cccc(Cl)c1	8.62%
COc1ccccc1NC(=O)c1cc(Br)ccc1Cl	6.71%
Cc1cc(NC(=O)Nc2ccccc2Cl)no1	14.7%
O=C(NN1C(=O)C2C3c4ccccc4C(c4ccccc43)C2C1=O)c1ccccc1 (stereo not shown)	14.3%
CCCn1c(SCC(=O)Nc2cccc(C(=O)OCC)c2)nnc1-c1ccoc1C	5.88%
COc1cc(C(C#N)N2CCC(c3ccccc3)=N2)ccc1O (stereo not shown)	5.94%
C/C(=N\NC(=O)c1ccc(Cl)c(Cl)c1)c1ccc(Br)s1	-0.684%
CCOc1ccc2nc(N(CCN(CC)CC)C(=O)/C=C/c3cccs3)sc2c1.Cl	9.57%
Nc1nnnn1/N=C/c1ccc(F)cc1	18.5%
O=C(c1ccc2c3c(cccc13)CC2)C1CCCN(Cc2cccnc2)C1 (stereo not shown)	-14.4%

SMILES	hERG current change (%, negative = inhibition) at 1uM
c1csc(-c2cc(N3CCCCC3)c3ccccc3n2)c1	8.47%
Nn1c(SCC(=O)Nc2ccccc2)nnc1C1CCCCC1	4.81%
COc1cc(/C=N/NC(=O)c2nonc2C)ccc1O	18.1%
C/C=C/C=N/Nc1nc(C)cc(=O)[nH]1	11.6%
O=C(CN1C(=O)/C(=C/c2ccc(Cl)cc2)SC1=S)NC1C=CS(=O)(=O)C1 (stereo not shown)	17.6%
O=S(=O)(Cc1ccccc1)c1ccccc1-c1nnc(-c2ccccc2)o1	14.9%
COc1ccc(C(=O)NCC(=O)Nc2ccc(F)cc2)cc1OC	4.45%
COc1cccc(-c2cccc(NC(=O)C3CCN(Cc4ccc(CO)o4)CC3)c2)c1	-10.4%
CCCCNC(=O)C1CCN(S(=O)(=O)c2ccc3c(c2)CC(C)N3C(=O)C2CC2)CC1 (stereo not shown)	6.25%
O=C(NNC(=O)c1ccccc1-n1cccc1)c1ccc(Cl)cc1Cl	2.6%
N#CCSc1nc(Nc2ccc3c(c2)OCO3)c2ccccc2n1	1.36%
COc1ccc(-c2nc(CC(=O)O)cs2)cc1OC	19.5%
CC(Oc1ccccc1)C(=O)NC1=NCCS1 (stereo not shown)	8.09%
c1ccc(-c2csc(Nc3nc(N4CCOCC4)nc(N4CCOCC4)n3)n2)cc1	8.82%
CC1=CC2=NC(=O)/C(=C\c3cccn3CCOc3ccccc3C)C(=N)N2O1	1.22%
COc1ccc(C(=O)COC(=O)CNC(=O)c2cccc(OC(F)F)c2)cc1	-7.51%
CC(C)NCC(O)COc1ccc(CCOCC2CC2)cc1.Cl (stereo not shown)	2.51%
CCn1c(C)nnc1SCC(=O)Nc1ccccc1Cl	6.94%
CC(=O)Nc1cccc(C(=O)Nc2ccccc2C(=O)O)c1	12.2%
Cc1ccc(C)c(NC(=S)NNC(=O)c2ccco2)c1	11.9%
COc1ccc(OC)c(/C=N\NC(=O)c2c(C)nc3cc(C)ccn23)c1	-3.48%
Nn1c(Cc2ccccc2)n[nH]c1=S	13%

— publication PMC4336329 (PLoS ONE, 2015)
